Laboratory results taken from the RNAGym collection of RNA variant scans (doi:10.7554/elife.90254).
The source gives no read counts; variants with many changes may rest on few reads.

B1: OR4K15 (parent)
chain: GUUAACGGUCAUAGGCCAUGGAAACUAGGAGCACCAUUUCGCUGCCAGUGAAGAAAUGAACAAAGAAAAUCUGGGCCAGGCAGGCAUCAAAAGAAAUAGUCUUGCGCUCAACCAGAAAGUCUGUAAUCAUUUUAAGGGUA

Variants of: B1
Assay: self-cleavage, relative activity (ratio to wild type); higher = more cleavage; in vitro, sequencing; the parent is a self-cleaving ribozyme

Variant	self-cleavage
C16G A52G G74U U87C	0.23
U2C U37C A82G U132A	0.25
A11G A24G A78U G106C	0.03
U38G A54U A68G C77U A126G	1.14
A5G A11G A67G	0.3
U43A A86G A96G C112U	0.02
A95G A110U A126G	1.13
A36U A69G U127C	0.3
A4G A52G A89U A95G	1.99
A51G A52U A55G U100A U102C	1.17
A23G A66G U108C	0.02
A23U A47U A91G	0.67
U2A A66G A96G	0.88
A11U A18G A62G U102A	1
A54G A62G A91G	1.44
U9C A116G A126G	1.08
U38C U39C A60G G99A	0.26
A47U A89G A91G	0.92
G53A A56G A135G	1.46
U12C U37C A52G A54G U127C U131C	0.39
U37C U57A A116G	0.18

Variant	self-cleavage
A27G A59G U131C	1.23
A47G G79U U87C	0.13
A5G U102C A118G	1.39
U38C A135G U139C	0.23
A23G U100C A111G	0.04
U49C A52G A69G A78U U127A U131C	0.57
A47G A92G U108A A118G	0
U37C A92G U97C U120C	0.34
A5G U12A A69G G84A U127A	1.12
C113U A116G U122A A140G	0
U19C U38C U131C	0.63
A5G A33G A118G	0.6
A30G A33U A111G	0.04
G50A A51U A96G U97A A98G	1.53
U9A A18U A24U A36G A118U	1.32
A11G U43A A55G	1.05
U19C A86G U108C	0.02
U2C A11G C128A	1.37
A11G A62G U72C A96G	0.18
U57C A60G A82U U103A	0.23
A11G G31C A110U	1.07

Variant	self-cleavage
A63G A78U U102C	1.18
A18G A47G A69G A117G U122C	0.38
G50U A66G C112U A125U	0.03
U9A U72C A111G	0.05
U19C A116G U122C	0.41
A68G U70C A94G	0.62
U70C A78G A82G U122C	0.14
A64U A67G G75C A94G	0.09
G7A A86G A89G U120G	2.29
A64G A69G U100C U127C	1.06
A78U A118G U122A	0.09
A36U A82U A94G	0.06
A68G U87C A92G	1.8
U37C U43C A67G U72A	0.47
A47U U57C A78G	0.18
A11G U87C A96G G136A	1.57
A51G A54G A95G A126G U131A	1.86
U49C A63G A126G	1.32
A27U A59G A90G	0.93
C10A A13G A24C U72C A126G	0.17
A33C U43C A55G A90U U124C	2.09

Variant	self-cleavage
A110G A125G A126U A135G	0.13
C71U G80U A96U U102C A134G	0.39
A5G A22G A47G U72C A134G	0.1
A23U A56G A118G	1
A24G A117G U130G	0.91
U49A A60G C81U	0.27
A13U A47G A67G A89G G99A	0.25
A67G A92G U131C A134U	1.3
A51G A59U U103C	1.1
U2C U9C A69G	1.6
G8A A11U U122C	0.99
U37C A47G U108C	0
A55G A56G A59U	0.76
G15A A60G G75C A86G A126G	0.07
C40U A60G U124A	0.43
A27G A118G U122G U132C	1.52
G7A A51G U70A A129G	0.3
U57C U72C U102C U122A	0.06
U38C A89G A92G A110G C128A	0.2
A5U U12C A33G A62G	1.39
A18G A96G A126G	1.62
